The other results are listed elsewhere or left out. At the low end of the ranking the order means little. Measured with an extract: partners may take part in the binding.

The target of the experiment is T1, HNF4alpha8 (COS-7 nuclear extract) (UniProt P41235-5).
T1 sequence: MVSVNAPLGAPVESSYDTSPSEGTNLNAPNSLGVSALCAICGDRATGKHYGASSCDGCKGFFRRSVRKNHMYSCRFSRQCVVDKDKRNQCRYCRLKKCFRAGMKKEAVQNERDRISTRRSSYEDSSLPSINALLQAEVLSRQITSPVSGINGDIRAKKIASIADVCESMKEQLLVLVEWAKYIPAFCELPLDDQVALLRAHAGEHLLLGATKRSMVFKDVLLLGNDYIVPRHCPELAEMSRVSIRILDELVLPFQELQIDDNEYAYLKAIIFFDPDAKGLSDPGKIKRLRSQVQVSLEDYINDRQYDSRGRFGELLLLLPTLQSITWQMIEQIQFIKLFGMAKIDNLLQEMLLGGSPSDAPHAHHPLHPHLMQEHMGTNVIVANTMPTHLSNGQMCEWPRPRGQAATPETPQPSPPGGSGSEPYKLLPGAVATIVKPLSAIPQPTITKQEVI
Description: protein-binding microarray. The following applies: COS-7 nuclear extract on double-stranded Agilent 4x180k PBM; binding buffer, salt, pH and temperature not given; high values mean tight binding; double strand, one strand shown; sequences stand for … in …GCCTAGGGAGATTAGAGTATCGGTCGA
Turning to AGAATAGAGGCCTTTGTGCTGACTAAGAGG, the binding signal (log2 normalized intensity) is -1.08.

Take CAACCTTTGAACTGGGTCTTAATAAGATAA: the binding signal (log2 normalized intensity) turned out to be 3.62. As for CGATCCTGCCCTTCTGACCTCCCAGGGATA, the figure is 3.94; as for GTGTGAATCGACCTTTAGCACCGTAAGAGA, 6.04; as for GGAATTTGGGTGATCCTGGTAGCAGGGGTG, 0.433. Next, TCAGGTGTGAACCCAGGCAAAGTCCAGAAA: 3.6; CGTTTGCTCCCATCCCCCCAAAGGCTCTCT: 4.58. Next, TCACCATCCCTGTTGCCTCATCTGAAAAAA: 0.207. For the sequence ACCCTGACCTGTCAAGCAATGATCTTCATG, the binding signal (log2 normalized intensity) was 0.201. As for ACGAGGTGAGAGGCGGAACAAGGCTGAAGG, the figure is -1.39. As for GGGAAGGGAGCAGTGGGGACGCCTTCCCCT, the figure is -1.28; as for GCATCAGGGTCCACAAGGGTTTAAATCTGA, 0.675. Next, CTAATGCCTGGGAAAATGTTGATTACGTGT: 1.08; GACCTTGTCATACTGGTTGAATGGACGGAC: 2.4. With GCTTGGAGCCCCTTTGGAGGGGAAGCTGGG, the binding signal (log2 normalized intensity) was -1.33.

Take CTGGGGACCCGTCGCTGCTGCACACTTCCG: the binding signal (log2 normalized intensity) is -1.29. Next, CCTTTGGACTGTCCTTTGCTAGATTCTTTC: 2.13; CCACCTTCCCGGCCTGGCCACTCCGTTTGC: -1.15.

Turning to TTCAACTATTCCTCGACCTTCGGCTGGGGA, the binding signal (log2 normalized intensity) worked out at 1.88. As for GCACCTGTTTCTGGAGAATGCTGTCCTGCC, the figure is 0.0974; as for TTCAAAGGGAAAAAATAATCAGCTTAAGCA, -1.34; as for ACGTGAGGGCAGCATAATCACATACAGGCC, -1.42. On to GAACCTGTGCTTCTGGTTCTGGACTAAGAA, for which the binding signal (log2 normalized intensity) worked out at 1.04. As for AAAATAGTGACCCTGTCTCTCAGTCTCTGT, the figure is 1.45; as for AATCCCCGAATGTCCAGACTGTGCATACCA, 1.62. As for CAAACATTACTGGCACACAGCAGATTACAT, the figure is -0.928; as for ATGCCCCAAATGACGCTTTAAGTAGGCACT, -0.0679.

In the case of CTAAAATATTCACTATCTGATCCTTTACAG, the binding signal (log2 normalized intensity) came out at 0.871.

Regarding TGGCCCTGATTTCAAAGTTCAGTTTGATTA, the binding signal (log2 normalized intensity) came to 2.7. As to GGAGGACAGACTCTGGGAGATAAAGCAGAG, the binding signal (log2 normalized intensity) was -1.27. As for AGGATCGCTTGAGCCTGGGAGGCAAAGGTT, the figure is 3.68; as for CTCACGCGCTCCCTGTTTAGAATTCTGCCT, -1.31. Next, ATAGAGAGTTGGGAGGGAACAGTCCAGAGT: 0.144.

Take AGAGAGCCGGAAACTCCACCTTCAGATCAT: the binding signal (log2 normalized intensity) was -1.4. Regarding GAATCTACAGAATTCTCATGGAGGACTTTG, the binding signal (log2 normalized intensity) amounted to 3.31. For GGAGAATGGCAAGAGATAAGGGTGGCCATC, the binding signal (log2 normalized intensity) was -0.994. As for TGGGCTAAAAAGGAAGCTGTGTGTGTGAGT, the figure is 1.82. For the sequence TCCTTCAGCGTGAACTTTGACATGAGAGAA, the binding signal (log2 normalized intensity) stood at 4.21. CTTGACGCTAACTTCCAGATCAAAGGACAT: the binding signal (log2 normalized intensity) turned out to be 1.16. As for AGGTTCCTCGCCTATGGTATGTATGGAATG, the figure is 2.2.

As to ATTGCCTGGCATTATCAGTGCTGCCATTTG, the binding signal (log2 normalized intensity) is -0.95. Regarding AAGAGGTTAAAGACCTTTGGGTAGGAATAG, the binding signal (log2 normalized intensity) is 1.47. With ACATTTGGTGTAAGCACTTGTGGTATGTTT, the binding signal (log2 normalized intensity) is 1.98.

For the sequence CACATGCTATTATTTTCCATCAGTGGACTT, the binding signal (log2 normalized intensity) turned out to be 3.95.

Consider TTTGGAAAAGATTAAGTTATCCATGGAGTG, for which the binding signal (log2 normalized intensity) turned out to be 0.897.

On to TCTTAGGAAAGAACAGGTCAAAGGTCAGTT, for which the binding signal (log2 normalized intensity) amounted to 9.61. Take ATCACAATCCTTAAGCAGCAGATAAGGCTA: the binding signal (log2 normalized intensity) is -1.23. As to TTTAATACCTCTGATCACTACAAGCTTTGA, the binding signal (log2 normalized intensity) was -1.2. As for AGCAGGATAGAAGGAAACAGTTCAGATCTG, the figure is -1.24; as for TGAAGTGAAGTTACAAAGGTCACACACCTG, 4.94; as for AAACACCCCTCCCCCACACAGACAAAGACA, 5.03. As for GCCAGTGGGGGTTGGTCTCTAAAACCCCCA, the figure is 1.27. Next, AACAAAGATTGCTTGCCAGTTCCCTCACTG: -1.32; ATGTTCTAACCATAGGAGGCTGGTCTAAGT: -0.241; CTTTCATCTCGGCTGGCTACTGCTCCACCT: -1.35. Take AAATATAGTTAAAGCCAGCTGTCTATCCTT: the binding signal (log2 normalized intensity) is -1.38. As for GTTCCACTGGTAACTAGGTTAATGTGAACA, the binding signal (log2 normalized intensity) worked out at 1.33. Next, AGGTAATAGGAAAAGGGAGTTTTCTGCTCT: -1.28.

Take AGGTCATCCTGGGCTACCGATATGAGGCTT: the binding signal (log2 normalized intensity) was -1.23. As for ACAATTGGCCAAAGTTCAGTAAATCTTAGA, the figure is 2.67. Next, TCTGTTATCAGACACAAGAATTACTACTCT: -1.2; CCTCACCTCCAGGGAGGGGAGAGGGGGTTA: -1.2. Next, AGAACCTGCCCATGACCTTTGGACTGTGAC: 10.2; GTAAGATAAGGTGAACATACGTGGCTACCT: -1.25; CAATGCCACAGAAAAGGCAGCAGCTTGGAA: -1.32. For the sequence AGCAGAAAGGAGGCAGAGACTGCCCTGAGC, the binding signal (log2 normalized intensity) was -1.12.

Turning to TTTGCAATCCTCCACTCTCCAAAATAGGGT, the binding signal (log2 normalized intensity) came to 0.272. Next, GGAAATTACCCTCTAATGGTATTCACTTTA: 0.569. As for TGGAGATAACAGTGTAAGGACATTGCCCCC, the figure is 6.22. As to ATGGACTTTGAAGGAGATTCCTGTGTCAGC, the binding signal (log2 normalized intensity) came to 1.23. Take CAGCAGCTATCAGTGGTCCGAACTACAGGG: the binding signal (log2 normalized intensity) is -1.27. As for TGAACTTTGCCTTAGGCCATTGTCCTTTGG, the figure is 3.43; as for GCAGAGCTATGGAATTTTGGCCTTTTTGTC, 1.84. For CTATTGGTTGTCAGACTGGTGTAGTGGGGA, the binding signal (log2 normalized intensity) was determined as 1.13. As for ACACTTGTACATACTTTTGGGGTATGTGTG, the figure is 2.28.

For the sequence AAATAGCTCAAGCCTGTTCCGACCTTAGTA, the binding signal (log2 normalized intensity) stood at 2.01. Next, CGGACAGGCATTAGCAATGCGAGAGTACAC: -0.523; CTGCCTAGTTTTGTAACTTAAAGATCATGT: 1.7.

For GCATCTGGGGGCTTGTCAGACAAGTTGCAG, the binding signal (log2 normalized intensity) was -1.21. Turning to GACTGGAAGTTGCCCGAGCTGCCCTTTATC, the binding signal (log2 normalized intensity) worked out at 3.27. As for CTCCGGGTAAAGGTGAAGGCTGACCACGGG, the figure is -0.56; as for CTTGCCTCTGTGCTCCCAGTTCCCTCATTA, -0.174; as for ATATGTTCGGGAGACATGTGGCCTTTGGTA, 3.47. Next, TGCTGACCTTTGTTCACATTTGTGCTCAGC: 4.37; TTGGACCACAGAGTGACCTGGTATTGCAAG: 2.41. Consider ACATGCCTATGACCGAGGGTTAAGCTCATG, for which the binding signal (log2 normalized intensity) came out at 0.32.

For CCTCTTTCAAGCCTGAACAAACATGAGGGA, the binding signal (log2 normalized intensity) is -0.461. Next, ACTCCTACCACCAAAGAAAAAAGCCAATCT: -1.11. As for CTTAGCAGTGGGAGACAGGCATTAACCCTT, the figure is 1.74; as for GGAACAGTCCAGAGTCTGACAGAACTAAGC, -0.815. On to CCATTAAATCTTCCCTCCTGTGAACTCGCG, for which the binding signal (log2 normalized intensity) was 1.14. As for GCCGTCCTCAGTGAATCACAGCAGCTTCAA, the figure is -1.25; as for AGTAGGATTTCTAGTTAATATCTAAGATGT, 0.852.

The values are drawn from publication PMC10726135.
